# Experimental data published in the supplement of paper PMC8728848.
# Some of the results follow.
# Experiments:
# Experiment in all cases: glycan array binding signal (z-score within array); higher = stronger binding
# Settings in all cases: glycan notation: IUPAC condensed, linker removed
# [1] = target: Fuc(a1-2)Gal
# Summary of the method: (§1)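 Arrays were curated from the Consortium for Functional Glycomics database, 3228 in total, and kept only where the protein sequence was available. Binding is expressed as a within-array Z-score. This score was averaged across arrays of the same protein sequence at different concentrations or buffers and across linkers, and negative values can be read as non-binding.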
# [2] = target: Fuc(a1-2)Gal(b1-3)GalNAc
# Summary of the method: as §1
# [3] = target: Fuc(a1-2)Gal(b1-3)GalNAc(a1-3)[Fuc(a1-2)]Gal(b1-4)Glc
# Summary of the method: as §1
# [4] = target: Fuc(a1-2)Gal(b1-3)GalNAc(a1-3)[Fuc(a1-2)]Gal(b1-4)GlcNAc
# Summary of the method: as §1
# [5] = target: Fuc(a1-2)Gal(b1-3)GalNAc(b1-3)Gal
# Summary of the method: as §1
# [6] = target: Fuc(a1-2)Gal(b1-3)GalNAc(b1-3)Gal(a1-4)Gal(b1-4)Glc
# Summary of the method: as §1
# [7] = target: Fuc(a1-2)Gal(b1-3)GalNAc(b1-4)[Neu5Ac(a2-3)]Gal(b1-4)Glc
# Summary of the method: as §1
# [8] = target: Fuc(a1-2)Gal(b1-3)GlcNAc
# Summary of the method: as §1
# [9] = target: Fuc(a1-2)Gal(b1-3)GlcNAc(b1-2)Man(a1-3)[Fuc(a1-2)Gal(b1-3)GlcNAc(b1-2)Man(a1-6)]Man(b1-4)GlcNAc(b1-4)GlcNAc
# Summary of the method: as §1
# [10] = target: Fuc(a1-2)Gal(b1-3)GlcNAc(b1-2)Man(a1-3)[Fuc(a1-2)Gal(b1-3)GlcNAc(b1-2)Man(a1-6)]Man(b1-4)GlcNAc(b1-4)[Fuc(a1-6)]GlcNAc
# Summary of the method: as §1
# [11] = target: Fuc(a1-2)Gal(b1-3)GlcNAc(b1-3)Gal(b1-4)Glc
# Summary of the method: as §1
# [12] = target: Fuc(a1-2)Gal(b1-3)GlcNAc(b1-3)GalNAc
# Summary of the method: as §1
# [13] = target: Fuc(a1-2)Gal(b1-3)GlcNAc(b1-3)[Fuc(a1-2)Gal(b1-3)GlcNAc(b1-6)]GalNAc
# Summary of the method: as §1
# [14] = target: Fuc(a1-2)Gal(b1-3)GlcNAc(b1-3)[Gal(b1-4)GlcNAc(b1-6)]Gal(b1-4)Glc
# Summary of the method: as §1
# [15] = target: Fuc(a1-2)Gal(b1-3)GlcNAc(b1-3)[Neu5Ac(a2-6)Gal(b1-4)GlcNAc(b1-6)]Gal(b1-4)Glc
# Summary of the method: as §1
# [16] = target: Fuc(a1-2)Gal(b1-3)GlcNAc6S
# Summary of the method: as §1
# [17] = target: Fuc(a1-2)Gal(b1-3)[Fuc(a1-4)]GlcNAc
# Summary of the method: as §1
# [18] = target: Fuc(a1-2)Gal(b1-3)[Fuc(a1-4)]GlcNAc(b1-2)Man(a1-3)[Fuc(a1-2)Gal(b1-3)[Fuc(a1-4)]GlcNAc(b1-2)Man(a1-3)]Man(b1-4)GlcNAc(b1-4)GlcNAc
# Summary of the method: as §1
# [19] = target: Fuc(a1-2)Gal(b1-3)[Fuc(a1-4)]GlcNAc(b1-2)Man(a1-3)[Fuc(a1-2)Gal(b1-3)[Fuc(a1-4)]GlcNAc(b1-2)Man(a1-6)]Man(b1-4)GlcNAc(b1-4)[Fuc(a1-6)]GlcNAc(b1-4)[Fuc(a1-6)]GlcNAc
# Summary of the method: as §1
# [20] = target: Fuc(a1-2)Gal(b1-3)[Fuc(a1-4)]GlcNAc(b1-3)[Fuc(a1-3)[Gal(b1-4)]GlcNAc(b1-6)]Gal(b1-4)Glc
# Summary of the method: as §1
# [21] = target: Fuc(a1-2)Gal(b1-3)[Fuc(a1-4)]GlcNAc(b1-3)[Gal(b1-4)GlcNAc(b1-6)]Gal(b1-4)Glc
# Summary of the method: as §1
# [22] = target: Fuc(a1-2)Gal(b1-4)Fuc(a1-3)]GlcNAc(b1-2)Man(a1-3)[Fuc(a1-2)Gal(b1-4)[Fuc(a1-3)]GlcNAc(b1-2)Man(a1-6)]Man(b1-4)GlcNAc(b1-4)GlcNAc
# Summary of the method: as §1
# [23] = target: Fuc(a1-2)Gal(b1-4)Glc
# Summary of the method: as §1
# [24] = target: Fuc(a1-2)Gal(b1-4)Glc6S
# Summary of the method: as §1
# [25] = target: Fuc(a1-2)Gal(b1-4)GlcNAc
# Summary of the method: as §1
# [26] = target: Fuc(a1-2)Gal(b1-4)GlcNAc(b1-2)Man
# Summary of the method: as §1
# [27] = target: Fuc(a1-2)Gal(b1-4)GlcNAc(b1-2)Man(a1-3)[Fuc(a1-2)Gal(b1-4)GlcNAc(b1-2)Man(a1-6)]Man(b1-4)GlcNAc(b1-4)GlcNAc
# Summary of the method: as §1
# [28] = target: Fuc(a1-2)Gal(b1-4)GlcNAc(b1-2)Man(a1-3)[Fuc(a1-2)Gal(b1-4)GlcNAc(b1-2)Man(a1-6)]Man(b1-4)GlcNAc(b1-4)[Fuc(a1-6)]GlcNAc
# Summary of the method: as §1
# [29] = target: Fuc(a1-2)Gal(b1-4)GlcNAc(b1-2)[Fuc(a1-2)Gal(b1-4)GlcNAc(b1-4)]Man(a1-3)[Fuc(a1-2)Gal(b1-4)GlcNAc(b1-2)Man(a1-6)]Man(b1-4)GlcNAc(b1-4)GlcNAc
# Summary of the method: as §1
# [30] = target: Fuc(a1-2)Gal(b1-4)GlcNAc(b1-3)Gal(b1-4)GlcNAc
# Summary of the method: as §1
# [31] = target: Fuc(a1-2)Gal(b1-4)GlcNAc(b1-3)Gal(b1-4)GlcNAc(b1-2)Man(a1-3)[Fuc(a1-2)Gal(b1-4)GlcNAc(b1-3)Gal(b1-4)GlcNAc(b1-2)Man(a1-6)]Man(b1-4)GlcNAc(b1-4)GlcNAc
# Summary of the method: as §1
# [32] = target: Fuc(a1-2)Gal(b1-4)GlcNAc(b1-3)Gal(b1-4)GlcNAc(b1-3)Gal(b1-4)GlcNAc
# Summary of the method: as §1
# [33] = target: Fuc(a1-2)Gal(b1-4)GlcNAc(b1-3)GalNAc
# Summary of the method: as §1
# [34] = target: Fuc(a1-2)Gal(b1-4)GlcNAc(b1-3)[Fuc(a1-2)Gal(b1-4)GlcNAc(b1-6)]GalNAc
# Summary of the method: as §1
# [35] = target: Fuc(a1-2)Gal(b1-4)GlcNAc(b1-3)[Fuc(a1-3)[Gal(b1-4)]GlcNAc(b1-6)]Gal(b1-4)Glc
# Summary of the method: as §1
# [36] = target: Fuc(a1-2)Gal(b1-4)GlcNAc(b1-6)GalNAc
# Summary of the method: as §1
# [37] = target: Fuc(a1-2)Gal(b1-4)GlcNAc6S
# Summary of the method: as §1
# [38] = target: Fuc(a1-2)Gal(b1-4)[Fuc(a1-3)]GlcNAc
# Summary of the method: as §1
# [39] = target: Fuc(a1-2)Gal(b1-4)[Fuc(a1-3)]GlcNAc(b1-2)Man(a1-3)[Fuc(a1-2)Gal(b1-4)[Fuc(a1-3)]GlcNAc(b1-2)Man(a1-6)]Man(b1-4)GlcNAc(b1-4)[Fuc(a1-6)]GlcNAc
# Summary of the method: as §1
# [40] = target: Fuc(a1-2)Gal(b1-4)[Fuc(a1-3)]GlcNAc(b1-2)[Fuc(a1-2)Gal(b1-4)[Fuc(a1-3)]GlcNAc(b1-4)]Man(a1-3)[Fuc(a1-2)Gal(b1-4)[Fuc(a1-3)]GlcNAc(b1-2)Man(a1-6)]Man(b1-4)GlcNAc(b1-4)GlcNAc
# Summary of the method: as §1
# [41] = target: Fuc(a1-2)Gal(b1-4)[Fuc(a1-3)]GlcNAc(b1-3)Gal(b1-4)[Fuc(a1-3)]GlcNAc
# Summary of the method: as §1
# [42] = target: Fuc(a1-2)Gal(b1-4)[Fuc(a1-3)]GlcNAc(b1-3)Gal(b1-4)[Fuc(a1-3)]GlcNAc(b1-3)Gal(b1-4)[Fuc(a1-3)]GlcNAc
# Summary of the method: as §1
# [43] = target: Fuc(a1-2)Gal(b1-4)[Fuc(a1-3)]GlcNAc(b1-3)GalNAc
# Summary of the method: as §1
# [44] = target: Fuc(a1-2)Gal(b1-4)[Fuc(a1-3)]GlcNAc(b1-3)[Neu5Ac(a2-6)Gal(b1-4)GlcNAc(b1-6)]Gal(b1-4)Glc
# Summary of the method: as §1
# [45] = target: Fuc(a1-2)Gal3S(b1-4)GlcNAc
# Summary of the method: as §1
binder,measurement,setting,value
Banana lectin (Musa acuminata) (protein) MNGAIKVGAWGGNGGSAFDMGPAYRIISVKIFSGDVVDGVDVTFTYYGKTETRHYGGSGGTPHEIVLQEGEYLVGMAGEVANYHGAVVLGKLGFSTNKKAYGPFGNTGGTPFSLPIAAGKISGFFGRGGKFLDAIGVYLEPLEHHHHHH,glycan array binding signal (z-score),[1],-0.209
same,glycan array binding signal (z-score),[2],-0.203
same,glycan array binding signal (z-score),[3],-0.212
same,glycan array binding signal (z-score),[4],-0.221
same,glycan array binding signal (z-score),[5],-0.202
same,glycan array binding signal (z-score),[6],-0.23
same,glycan array binding signal (z-score),[7],-0.133
same,glycan array binding signal (z-score),[8],-0.209
same,glycan array binding signal (z-score),[9],0.268
same,glycan array binding signal (z-score),[10],0.041
same,glycan array binding signal (z-score),[11],-0.179
same,glycan array binding signal (z-score),[12],-0.216
same,glycan array binding signal (z-score),[13],-0.239
same,glycan array binding signal (z-score),[14],-0.206
same,glycan array binding signal (z-score),[15],-0.218
same,glycan array binding signal (z-score),[16],-0.221
same,glycan array binding signal (z-score),[17],-0.19
same,glycan array binding signal (z-score),[18],-0.174
same,glycan array binding signal (z-score),[19],0.022
same,glycan array binding signal (z-score),[20],-0.217
same,glycan array binding signal (z-score),[21],-0.232
same,glycan array binding signal (z-score),[22],-0.096
same,glycan array binding signal (z-score),[23],-0.217
same,glycan array binding signal (z-score),[24],-0.209
same,glycan array binding signal (z-score),[25],-0.207
same,glycan array binding signal (z-score),[26],-0.222
same,glycan array binding signal (z-score),[27],0.303
same,glycan array binding signal (z-score),[28],0.084
same,glycan array binding signal (z-score),[29],0.042
same,glycan array binding signal (z-score),[30],-0.21
same,glycan array binding signal (z-score),[31],-0.109
same,glycan array binding signal (z-score),[32],-0.196
same,glycan array binding signal (z-score),[33],-0.303
same,glycan array binding signal (z-score),[34],-0.219
same,glycan array binding signal (z-score),[35],-0.2
same,glycan array binding signal (z-score),[36],-0.21
same,glycan array binding signal (z-score),[37],-0.212
same,glycan array binding signal (z-score),[38],-0.205
same,glycan array binding signal (z-score),[39],-0.19
same,glycan array binding signal (z-score),[40],-0.177
same,glycan array binding signal (z-score),[41],-0.19
same,glycan array binding signal (z-score),[42],-0.178
same,glycan array binding signal (z-score),[43],-0.192
same,glycan array binding signal (z-score),[44],-0.206
same,glycan array binding signal (z-score),[45],-0.164
